Test results reported in PubChem BioAssay AID938 (National Center for Advancing Translational Sciences (NCATS), 2007).
Hit rate of the full screen: of about 73,000 compounds, about 1,800 (2.5%) were called active. Inconclusive results, whose numbers are uncertain, are shown with a selection of clear calls. Calls come from the whole dose curve; as a rule, active = well fitted activation curve with a large enough effect; inconclusive = small, poorly fitted or top-dose-only effect; inactive = no such curve, though single readings can be large or run the other way. No potency is given beside an inconclusive call; the fits are too rough.

Assay: qHTS Assay for Agonists of the Thyroid Stimulating Hormone Receptor: Activators of Intracellular cAMP Concentrations in Parental HEK 293; note: nearly all actives have a fitted effect of over 55% in size
Details: parental HEK293 CNG cAMP sensor, membrane potential fluorescence; series mostly up to 57.1 µM
How it was run: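 Parental HEK 293 cells stably expressing a cAMP-gated CNG channel were loaded with membrane potential dye containing 100 uM RO 20-1724 for 60 min. Compound added for 30 min; depolarization read as fluorescence intensity at 590 nm.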
Potency is the fitted concentration of half-maximal effect; tags give direction and shape of the fitted curve.

| SMILES | Potency |
| --- | --- |
| Cc1onc(-c2ccccc2Cl)c1C(=O)Nc1ccc(-n2nncc2C(C)(C)C)cc1 | inconclusive [activator, partial curve] |
| COc1cc(C(c2sc3nc(C)nn3c2O)N2CC(C)CC(C)C2)cc(OC)c1OC (centres undefined) | inconclusive [activator, full curve, poor fit] |
| Nc1cc(-c2cccc(F)c2)nn1S(=O)(=O)c1cccc2nsnc12 | inactive |
| O=C(c1ccco1)N(CCCN1CCOCC1)c1nc(-c2ccc(F)cc2)cs1 | inconclusive [activator, partial curve] |
| c1ccc(CSc2nnc(-c3ccco3)n2Cc2ccccc2)cc1 | active: 15.8 µM |
| Cn1c(=O)c2c(nc(CN3CCN(c4ccc(F)cc4)CC3)n2Cc2ccccc2F)n(C)c1=O | inconclusive [activator, single point] |
| CCOc1ccc(-n2c(SCc3nc(-c4cccs4)no3)nnc2-c2ccncc2)cc1 | active: 3.16 µM |
| CC1(C)CC(=O)C2=C(C1)Oc1ncn(CCO)c(=N)c1C2c1ccccc1 (centres undefined) | inconclusive [activator, single point] |
| CCCC1C2CN(C(C)C)CC=C2C(C#N)=C(N)C1(C#N)C#N (centres undefined) | inconclusive [activator, single point] |
| COc1cccc(Nc2c(F)c(OC)c(F)c(F)c2C(=O)O)c1 | inconclusive [activator, single point] |
| CCCCn1c(NCCO)nc2ccccc21 | inactive |
| COc1ccc2nc3oc(C(=O)NCc4cccs4)cc3cc2c1 | inconclusive [activator, single point] |
| CCOc1cc(-c2noc(N)c2C(=O)OC)cc(OCC)c1OCC | inconclusive [activator, full curve] |
| CCOc1ccccc1NC(=O)N1C2CCCC1CC(NC(=O)C1CC1)C2 (centres undefined) | inconclusive [activator, single point] |
| CCn1ncc(C2=NOC(C(=O)NCc3ccc(OC)cc3)C2)c1C (centres undefined) | inconclusive [activator, single point] |
| OC(c1cccnc1)c1cccs1 (centres undefined) | inconclusive [activator, single point] |
| CC(C)CNC(=O)NC1C(NC(=O)NCC(C)C)N(C)C(=O)N1C (centres undefined) | inactive |
| CNC(=O)N(C1=NCC(C)S1)c1ccc(F)cc1F (centres undefined) | inconclusive [activator, single point] |
| COc1cc(/C=C(\C#N)C(=O)c2ccc(O)c(O)c2)cc(I)c1O | inconclusive [activator, single point] |
| COc1ccc(OCc2nnc3n2N=C(c2ccc(OC)cc2)CS3)cc1 | inconclusive [activator, partial curve] |
| CS(=O)(=O)c1ccc(CNC(=O)[C@@H]2C[C@H]2[C@@H](NP(=O)(c2ccccc2)c2ccccc2)c2ccccc2)cc1 | inconclusive [activator, single point] |
| Cc1cc(C(=O)CSCCCn2c(=O)[nH]c3ccccc32)c(C)n1C | inactive |

| SMILES | Potency |
| --- | --- |
| CN1CCc2cc(NC(=O)Nc3cccnc3)ccc21 | inconclusive [activator, single point] |
| CCOc1ccc(OCC)c(NC(=O)CSc2nc3c(c(=O)n(C)c(=O)n3C)n2C(C)C)c1 | inconclusive [activator, single point] |
| Cc1cccc(Cn2c(N(C)CCO)nc3c2c(=O)[nH]c(=O)n3C)c1 | inconclusive [activator, single point] |
| O=S(NCc1ccccc1)C12CC3CC(CC(C3)C1)C2 (centres undefined) | inconclusive [activator, single point] |
| CCCc1cc2c(=O)c(-c3ccccn3)c(C)oc2cc1O | inconclusive [activator, full curve, poor fit] |
| CC(C)(CN1CCCCC1)NS(=O)(=O)c1ccc(Cl)cc1 | inconclusive [activator, partial curve] |
| CCOC(=O)C1C(=O)CC(C)(O)C(C(=O)OCC)C1c1ccc(Br)cc1 (centres undefined) | inconclusive [activator, partial curve] |
| COCCOC(=O)c1c(C)oc2ccc(OCC=C(C)C)cc12 | inconclusive [activator, single point] |
| COC(=O)C1C(c2ccccc2)C(C(=O)N2CCOCC2)C1c1ccccc1 (centres undefined) | inconclusive [activator, partial curve] |
| O=C(CN(Cc1ccco1)C(=O)CNS(=O)(=O)c1ccccc1)NCc1ccccc1 | inactive |
| COC(=O)Nc1cc(C(F)(F)F)ccc1N1CCN(c2ccccc2)CC1 | inconclusive [activator, partial curve] |
| O=c1[nH]n(-c2ccccc2)c(=O)c2ccccc12 | inconclusive [activator, single point] |
| CC[C@H](C)N(C)C(=O)c1cc2ccccc2c(-c2ccccc2Cl)n1 | inconclusive [activator, partial curve] |
| Cc1ccccc1N1C(=O)C(Cl)=C(N2CCCCCC2)C1=O | inconclusive [activator, single point] |
| COC(=O)NC(c1ccccc1)[C@]1(C(C)=O)CCCC1=O (some centres undefined) | inconclusive [activator, single point] |
| CN1CCN(c2ncc3nc(-c4cccc(C#N)c4)c(=O)n(CCc4ccccc4)c3n2)CC1 | inconclusive [activator, single point] |
| Cc1cc(-c2nnc(-c3cc4ccccc4oc3=O)o2)c(C)n1-c1ccccc1 | inactive |
| O=C(Nc1nc2ccccc2n1CCOc1ccccc1)c1ccco1 | active: 25.1 µM |
| CC(=O)Nc1nc(-c2cccs2)cs1 | inactive |
| N#Cc1cccc(-c2cncnc2-n2ccnc2)c1 | inactive |
| Cc1cc(C)cc(NC(=O)CSc2nnc(-c3ccccc3Br)o2)c1 | inconclusive [activator, single point] |
| O=C(Nc1ccc(NC(=O)C2CC2)cn1)c1ccccc1Cl | inconclusive [activator, single point] |
